Laboratory results from the RNAGym collection of RNA variant scans (doi:10.1093/nar/gkz1192).
Read counts are not given, so values of variants with three or more changes are uncertain.

B1: CPEB3 Ribozyme (parent)
chain: UAACAGGGGGCCACAGCAGAAGCGUUCACGUCGCAGCCCCUGUCAGAUUCUGGUGAAUCUGCGAAUUCUGCUGUAUAUCUC

Variants of: B1
Test: self-cleavage, relative activity (ratio to wild type); higher = more cleavage; in vitro, sequencing
Procedure, shortened: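 Relative activity compares each variant's cleaved/total read fraction with that of the unmutated ribozyme. To get these fractions, barcoded CPEB3 ribozyme libraries from rounds of error-prone PCR were transcribed with T7 RNA polymerase for 5 hours at 37°C and then given 15 min of DNase I treatment before EDTA was added. The RNAs were reverse transcribed with template switching and sequenced on Illumina, and DNA sequencing linked barcodes to variants. A minimum of 5 reads applied, and three batches were averaged.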

| Variant | self-cleavage |
| --- | --- |
| A15G A20G U25A U48C U80C | 0.41 |
| A15G A28G U31A U51C U72A | 0.16 |
| C14A U25C U58C U60A U80A | 0.05 |
| A15C A20G U78C | 0.87 |
| A15G A28G A65G | 0.24 |
| A15G C40U U78A | 0.64 |
| A15G A18U U43A A56G U80C | 0.31 |
| A15C C38U A47G A57G U58C | 0.79 |
| A13U U41C A47G A65U | 0.51 |
| A13U U72C U74A | 1.27 |
| A15G A28G C50A U72A | 0.3 |
| A15C U67C U69C | 0.18 |
| C14A A20G U49C U72C | 0.12 |
| A15G A64G U69C | 0.24 |
| A13U U41C U49C | 0.85 |
| A15G A18G U66C U78C | 0.03 |
| C14U A20U C62U | 0.13 |
| A15G C37U U51A U69C | 0.1 |
| A15G A35U A64U | 0.17 |
| A15G A35G U78C | 0.65 |
| A15C C29A A65G | 0.13 |

| Variant | self-cleavage |
| --- | --- |
| C14U U26A U51A U54C G55A U74G | 0.98 |
| A15G C17U A28G A65G | 0.22 |
| A13U U66A U78A | 0.62 |
| A15G C29U A75U | 0.29 |
| A15G A18G A21G U31C A65G | 0.11 |
| A15G A35U C68A | 0.24 |
| A15G A20C A35G U54C U69G | 0.34 |
| A13U U58C U80C | 0.57 |
| A13U U66C C68A | 0.38 |
| A15G A18U U74A C81U | 0.29 |
| A15G A21G U26C U69C | 0.15 |
| A15G A28G U49A U69C | 0.07 |
| A13U U43A U58C A64U | 0.23 |
| A13U U43A U69A | 1 |
| A15G C27U A35G U54C U67A G73A | 0.09 |
| C14U G24A A28G U41A A64C U78C | 0.07 |
| C14U U74C U78C | 1.38 |
| A15G A57U G63U U69C | 0.13 |
| A15G A21G U25C U26C U72G | 0.06 |
| A15G A18G C62U A65G | 0.15 |
| C14U G16U A20C A65G U67A | 0.06 |

| Variant | self-cleavage |
| --- | --- |
| C14A A28G A35U C38U U51C U66C | 0.05 |
| C14A U41C U43G A45U | 0.04 |
| A13U U31A U69C U72A | 0.14 |
| A15G A18G A64U U67A U78C | 0.15 |
| C14U G24C A35G A56G U67A U72C U76A | 0.07 |
| A15G A21G A45G U54A U72C | 0.8 |
| A15G C40A A77G | 0.26 |
| C14U A21G C34G A56G A65G A75G | 0.06 |
| A15G C34U U41A U69C | 0.15 |
| A15G A18G A28G A57G A64G | 0.34 |
| C14A U41C G52A | 1.18 |
| A15C U49A G55U G70A U76C | 0.36 |
| A15G A45U U51A C81U | 0.51 |
| A15G A18G U25A G30C C39A U72A U76A | 0.07 |
| A15G A18G G46C C62U U69A | 0.08 |
| A15G A20U U60C G61A U67C | 0.15 |
| C14U A20U A45G | 0.22 |
| A15G A35U C62A U74C | 0.14 |
| A13U U60C U66C C79U | 0.23 |
| A13U U31C A45U A77U | 0.44 |
| A15C A56G A65G U67C U74A U78A | 0.05 |

| Variant | self-cleavage |
| --- | --- |
| A15G A28G U66A U69C | 0.2 |
| C14U A15U A28G U54A A57G | 0.54 |
| A13U U72A U78A | 1.12 |
| C14U C23G U41C U58C | 0.08 |
| A15G A20U U31A | 0.36 |
| C14A U26G U49A U54C U74A | 0.1 |
| A15G A20G A35U U54C A57G | 0.1 |
| A15G A56G A64G | 0.55 |
| C14U A18G U66C | 0.21 |
| A13U U43C U49C A56G A64U U66C U72C | 0.13 |
| A15G A20U U67C | 0.1 |
| A15G A20U U49C U67A | 0.95 |
| C14U A21G A57G U78C | 0.45 |
| A15G A28G A45G U51C | 0.35 |
| A15G A45G U48A U58A A64U U80A | 0.09 |
| A15G A45G U49C | 0.22 |
| A13U U31A U51A | 0.6 |
| A15G A28C U41A U72C C79G | 0.19 |
| A13U U67C U74A | 0.33 |
| A13U U67A U76C | 0.98 |
